# The campaign covered roughly 310,000 compounds. About 14,000 (4.5%) showed an effect of 50% or more. The effect is printed as a negative number. This is one part of the list.
# Target: human ether-à-go-go-related gene (hERG) potassium channel (human, UniProt Q12809)
# Assay: primary screen, population patch clamp on CHO cells stably expressing hERG
# 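Further: peak tail current of the secondary pulse compared with the same well before compound.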
# Sequence of human ether-à-go-go-related gene (hERG) potassium channel (Q12809 whole entry, looked up): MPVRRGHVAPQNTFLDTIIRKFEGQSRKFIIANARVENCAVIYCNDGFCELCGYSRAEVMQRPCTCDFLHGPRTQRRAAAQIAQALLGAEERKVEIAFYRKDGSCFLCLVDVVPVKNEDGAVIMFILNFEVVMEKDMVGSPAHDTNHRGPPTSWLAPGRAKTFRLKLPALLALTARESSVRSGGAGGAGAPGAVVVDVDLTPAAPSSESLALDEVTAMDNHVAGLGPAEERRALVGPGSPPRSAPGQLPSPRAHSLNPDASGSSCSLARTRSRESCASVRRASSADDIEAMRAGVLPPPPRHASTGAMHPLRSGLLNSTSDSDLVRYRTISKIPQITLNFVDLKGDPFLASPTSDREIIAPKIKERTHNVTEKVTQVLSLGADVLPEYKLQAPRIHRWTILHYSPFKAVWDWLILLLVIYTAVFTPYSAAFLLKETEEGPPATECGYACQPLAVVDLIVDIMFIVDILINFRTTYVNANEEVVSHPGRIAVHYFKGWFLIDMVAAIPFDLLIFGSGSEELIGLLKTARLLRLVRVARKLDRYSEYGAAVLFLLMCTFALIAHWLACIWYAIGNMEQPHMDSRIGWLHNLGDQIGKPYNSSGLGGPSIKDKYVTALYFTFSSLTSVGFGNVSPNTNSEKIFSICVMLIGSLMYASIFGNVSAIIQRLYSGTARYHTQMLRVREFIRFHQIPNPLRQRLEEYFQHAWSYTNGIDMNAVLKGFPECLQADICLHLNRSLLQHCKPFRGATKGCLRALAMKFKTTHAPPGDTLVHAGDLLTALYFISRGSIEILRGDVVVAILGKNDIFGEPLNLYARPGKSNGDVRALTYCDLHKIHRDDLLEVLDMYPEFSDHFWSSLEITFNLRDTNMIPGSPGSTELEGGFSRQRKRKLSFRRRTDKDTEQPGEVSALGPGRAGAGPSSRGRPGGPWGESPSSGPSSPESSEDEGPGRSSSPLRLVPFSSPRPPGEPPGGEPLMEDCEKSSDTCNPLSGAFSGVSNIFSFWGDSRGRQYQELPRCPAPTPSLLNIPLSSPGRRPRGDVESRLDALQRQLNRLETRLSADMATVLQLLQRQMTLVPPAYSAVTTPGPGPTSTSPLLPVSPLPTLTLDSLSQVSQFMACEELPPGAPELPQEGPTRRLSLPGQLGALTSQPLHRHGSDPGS
row,SMILES,"hERG current change (%, negative = inhibition) at 10uM [%]"
1,COc1cccc(OCC(=O)Nc2cc(NC(=O)COc3cccc(OC)c3)cc(C(=O)O)c2)c1,17
2,CN(C(=O)CSc1nnnn1-c1ccc(O)cc1)C1CCS(=O)(=O)C1 (centres unmarked),14.8
3,CCCCNC(=O)N1CCN(c2ncccn2)CC1,3.43
4,CCc1ccc(N2C(=O)NC(=O)/C(=C\c3cc(C)n(-c4cc(C(=O)O)cc(C(=O)O)c4)c3C)C2=O)cc1,14.6
5,CCOc1ccc2nc(NC(NC(C)=O)(C(=O)OC)C(F)(F)F)sc2c1 (centres unmarked),-13.2
6,Cc1ccsc1/C=C/c1ccc2cccc(O)c2n1,9.25
7,N=c1oc2cc(O)ccc2cc1C(=O)Nc1ccc(Cl)cc1,20.2
8,CCCNC(=O)NC(=O)COC(=O)/C=C/c1cc(Br)ccc1F,-3.46
9,CCC(=O)Nc1nc(-c2ccccc2)nc(SC)c1C(C)=O,9.52
10,O=C(Nc1ccccc1)O/N=C/c1ccc(F)cc1,-28.6
11,COc1ccc(S(=O)(=O)NCC2CCCN(Cc3ccc(C)o3)C2)cc1 (centres unmarked),-25.5
12,Cc1ccc2nc(SCC(=O)N3CCN(c4ccccc4)CC3)nc(=O)n2c1,-47.5
13,CC(C)Cc1nn2c(=O)cc(CSCC(=O)Nc3ccccc3F)nc2s1,-19.2
14,COC(=O)c1ccc(-n2c(C)cc(C(=O)CSc3ccc(NC(C)=O)cc3)c2C)cc1,9.5
15,CCC12CN3CCN(CC(C3)/C1=N\NC(=O)Nc1ccccc1)C2,-10.4
16,Cc1cc(N2CCOCC2)n2cc(-c3ccccc3)nc2n1,-50.1
17,COc1ccccc1C(=O)NCCC(=O)N1CCN(c2cccc(C(F)(F)F)c2)CC1,-21.7
18,COC(=O)C1=C(C)N(c2ccc(C)c(C)c2)/C(=C/c2cccs2)C1=O,-17.7
19,COc1ccc(S(=O)(=O)N2CCN(c3ncccn3)CC2)cc1[N+](=O)[O-],-14
20,O=C(NC1=NCCS1)C1CC(=O)N(c2ccccc2)C1 (centres unmarked),5.57
21,Cn1cc2cccc([N+](=O)[O-])c2n1,2.69
22,CCOc1ccc(/C=N/NC(=S)NC2CC3CCC2C3)cc1 (centres unmarked),8.01

row,SMILES,"hERG current change (%, negative = inhibition) at 10uM [%]"
1,CCOC(=O)c1nc(C)sc1-c1ccnn1S(=O)(=O)c1ccc(C)cc1,-33.1
2,Cc1ccc(CCNC(=O)CCNS(=O)(=O)c2ccc3c(c2)c(=O)n(C)c(=O)n3C)cc1,9.8
3,CCc1nc(SCc2ccc(F)cc2)[nH]c(=O)c1C#N,17.8
4,CC(C)(C)NC(=O)c1sccc1C(=O)O,11.3
5,Cc1cccc(-n2nc3c(c2NC(=O)c2ccco2)CS(=O)C3)c1C (centres unmarked),7.5
6,CCCS(=O)(=O)N1CCCC(C(=O)NCCCN(C)c2ccccc2)C1 (centres unmarked),5.82
7,CC(=O)c1ccc(-n2cc(C#N)c(=O)[nH]c2=O)cc1,18.9
8,O=[N+]([O-])c1cccc(C2N3CCCN23)c1 (centres unmarked),12.3
9,COCc1nc2ccccc2n1Cc1ccccc1Br,-16.7
10,Cc1cc(C(=O)CSc2nnc(-c3cccnc3)n2-c2ccccc2F)c(C)n1CC1CCCO1 (centres unmarked),-16.7
11,CC(=O)NCc1cc(-c2ccc(Cl)cc2)no1,-4.31
12,COc1ccc(C(=O)NC(=S)Nc2ccccc2N2CCOCC2)cc1[N+](=O)[O-],2.73
13,C[C@@]12C(=O)N(CC3CC3)CC(=O)N1[C@H](C1CC1)[C@@H]1C(=O)N(c3ccccc3)C(=O)[C@@H]12,-11.1
14,O=C(COc1ccc(S(=O)(=O)NC2CCCCC2)cc1Cl)N1CCN(c2ccccc2)CC1,-13.8
15,Cc1cc(N(C)N)nc(NC(=O)NS(=O)(=O)c2ccccc2Cl)n1,7.58
16,N#C/C(=C\c1ccncc1)c1nc2c(s1)CCCC2,-3.44
17,CCCOc1ccc(CC(=O)NCC2(c3ccccc3)CCOCC2)cc1OC,-4.73
18,COc1cc(SC)ccc1C(=O)Nc1c(C)cccc1C,-18.3
19,CN(C)C(=O)CSc1nc2ccccc2c(=O)[nH]1,22
20,O=C(CCNS(=O)(=O)c1ccccc1)OCc1nc2ccsc2c(=O)[nH]1,-27.2
21,Cc1ccc(-n2c(C)cc(/C=N/NC(=O)c3ccncc3)c2C)cc1,-9.86
22,Cc1cc(C)c(OCC(=O)N2CC=C(c3ccccc3)CC2)c(C)c1,7.93
